Values marked as one replicate rest on one cluster of the flow cell; about a third of the high ones do not repeat.
The sequences below were run on ATP (assay: switch fluorescence ratio, 500 uM ATP over buffer (Cy3 cluster intensity, sum of 5 cycles each) (fold (ratio)); higher = stronger signal-on switching upon ATP binding; sequences stand for … in TCGTCGGCAGCGTCAGATGTGTATAAGAGACAGTTTTTTTTTTTTTTTTTTTTTTTTT…TC). Details: aptamer strand: ATP DNA aptamer (quencher-CACCTGGGGGAGTATTGCGGAGGAAGG + anchor), 100 nM annealed; ATP concentration: 500 uM; one replicate.
In short: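 Exposure to 500 uM ATP lasted 15 min at 22 °C before imaging, and a selection-buffer image was taken beforehand, for Cy3-labelled switching-strand clusters on a modified Illumina MiSeq flow-cell annealed to 100 nM quencher-labelled ATP aptamer. Five buffer/ATP cycles were run with NaOH stripping and re-annealing between them. The fluorescence ratio per cluster is summed target-cycle over summed buffer-cycle Cy3 intensity, averaged per switch-domain sequence. Clusters outside 100-1000 RFU were excluded.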

Sequence | switch fluorescence ratio
ACGTGTCGTC | 0.958
ACGTGTGATA | 0.992
ACGTGTGG | 1.02
ACGTTAACGA | 1.04
ACGTTCACGG | 1.11
ACGTTCCTTC | 1.47
ACGTTCCTTG | 1.19
ACGTTCGCTG | 1.04
ACGTTGGACT | 1.07
ACGTTGGTCA | 1.01
ACGTTGTGTG | 1
ACGTTTAGCT | 1.08
ACGTTTTTAA | 0.994
ACTAAATACG | 1.12
ACTAACAGGT | 1.27
ACTAAGTAAG | 1.01
ACTAAGTCGT | 1.03
ACTAATAACT | 1.01
ACTAATTAAT | 1.06
ACTACAATTA | 1.07
ACTACAGGAT | 1.01
ACTACAGTCT | 1.08
ACTACCGCTT | 1.32
ACTACGAAAG | 1.12
ACTACTCCGC | 3.46

Sequence | switch fluorescence ratio
ACTACTCTCA | 1
ACTACTGTCA | 1.04
ACTAGACAAT | 1.11
ACTAGCATTC | 2.03
ACTAGCCTGT | 1
ACTAGCGAAA | 1.01
ACTAGGAGTT | 0.988
ACTAGGTTGG | 1.03
ACTAGTAAA | 0.992
ACTAGTCGAT | 0.972
ACTAGTGCTA | 1.02
ACTAGTTGGG | 0.998
ACTAGTTTAC | 1.03
ACTATGTTAT | 1.03
ACTATGTTGT | 0.978
ACTATTGTAT | 1.05
ACTCAATGT | 1.03
ACTCAATTC | 1.23
ACTCACCTCG | 1.28
ACTCAGAAAT | 1.47
ACTCAGCTGA | 1.07
ACTCAGTCTA | 1.03
ACTCATATTT | 1.04
ACTCATCCGA | 1.16
ACTCATGAGG | 1

Sequence | switch fluorescence ratio
ACTCCACGGA | 1.46
ACTCCAGCGA | 7.17
ACTCCCCAAA | 2.9
ACTCCCTC | 1.76
ACTCCCTGAT | 1.33
ACTCCCTGCG | 1.59
ACTCCTCACT | 1.5
ACTCCTCTCC | 1.82
ACTCGAAACG | 1.01
ACTCGAAGA | 1
ACTCGAAGCT | 1.03
ACTCGAGGTG | 1.13
ACTCGAGTTA | 0.988
ACTCGATTTG | 0.999
ACTCGGCAAG | 6.42
ACTCGGGGCG | 1.03
ACTCGGTTCC | 1.07
ACTCGTGCGC | 1.05
ACTCTAAAGG | 1.12
ACTCTAACGG | 1.18
ACTCTAGGGA | 1.03
ACTCTATTTT | 1.03
ACTCTCCCTC | 1.23
ACTCTCCTAT | 1.01
ACTCTGAGGT | 1.05

Sequence | switch fluorescence ratio
ACTCTTCCTG | 1.31
ACTGAACCTT | 1.78
ACTGAATT | 0.988
ACTGACCTGT | 1.1
ACTGAGAGA | 0.968
ACTGATGCGA | 1.1
ACTGATGTGC | 1.1
ACTGCGCACG | 1.35
ACTGCTTAGC | 1.03
ACTGGAGCGA | 1.41
ACTGGCCCCT | 1.01
ACTGGCGCAC | 1.2
ACTGGGAATT | 1.01
ACTGGGCCCC | 1.02
ACTGGGTACA | 1.02
ACTGGGTCAC | 1.03
ACTGGGTCCC | 1.01
ACTGGTAATA | 1.05
ACTGGTACCG | 1.06
ACTGGTGATG | 1
ACTGGTTTGT | 1.03
ACTGTACTAA | 1.37
ACTGTAGCGT | 1.16
ACTGTATACT | 1.19
ACTGTATTGC | 1.2

— the supplement of paper PMC10126150
